The text below walks through data of the supplement of paper PMC4967469.

pIC50: −log10 of the molar value. A lower IC50 marks a more sensitive line; a fit beyond the top or the lowest dose is shown as a bound at that dose. AUC sums up the same curve from the lowest dose to the 256-fold higher top dose; it is 1 without any effect and falls as sensitivity rises. Where the top dose is marked as inferred, it comes from the curve model; the source does not state it.

Compound in the experiment: CC1=C(C(=O)Nc2cc3cn[nH]c3cc2F)C(c2ccc(C(F)(F)F)cc2)CC(=O)N1 [GSK429286A]
Description: Viability of human cancer cell lines after 72 h of drug (GDSC screen). The following applies: top dose inferred. Here is the method: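 Human cancer cell lines in 384-well plates, medium with 10% serum, drug for 72 h over a 256-fold dose range (nine 2-fold or five 4-fold steps up to the top dose). Adherent lines were fixed and stained with the nucleic acid dye Syto60, suspension lines read with resazurin; signal relative to control wells, capped at 0 and 100%. One two-parameter sigmoid per drug and line, fitted in a mixed model over all curves with the slope shared within a line.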
Usually pIC50 stands for the negative decadic logarithm of the IC50, by convention in mol/L. Take “SK-MEL-28 (melanoma, adherent, top dose 20 µM)”: the AUC is 0.981 and the pIC50 was under 4.70.
Taken in the same sequence, the figures for “SK-MEL-30 (melanoma, adherent, top dose 20 µM)” were 0.982 and under 4.70.
Consider “SK-MES-1 (lung squamous cell carcinoma, adherent, top dose 20 µM)”, for which the AUC was determined as 0.978 and the pIC50 is under 4.70.
Taken in the same sequence, the figures for “SK-MG-1 (glioma, adherent, top dose 20 µM)” were 0.987 and under 4.70.
With “SK-MM-2 (myeloma, suspension, top dose 20 µM)”, the AUC is 0.946 and the pIC50 is under 4.70.
For the cell line “SK-N-AS (neuroblastoma, adherent, top dose 20 µM)”, the AUC was 0.984 and the negative-log IC50 (pIC50) is under 4.70.
Taken in the same sequence, the figures for “SK-N-DZ (neuroblastoma, adherent, top dose 20 µM)” were 0.982 and under 4.70.
Taken in the same sequence, the figures for “SK-N-FI (neuroblastoma, adherent, top dose 20 µM)” were 0.977 and under 4.70.
As for “SK-N-SH (neuroblastoma, adherent, top dose 20 µM)”, the AUC came out at 0.943 and the pIC50 is under 4.70.
As to “SK-OV-3 (ovary, adherent, top dose 20 µM)”, the AUC came out at 0.954 and the pIC50 was under 4.70.
Consider “SK-PN-DW (Ewing sarcoma, adherent, top dose 20 µM)”, for which the AUC came to 0.971 and the pIC50 is under 4.70.
As for “SK-UT-1 (soft tissue, adherent, top dose 20 µM)”, the AUC worked out at 0.989 and the pIC50 is under 4.70.
As to “SKG-IIIa (cervix, adherent, top dose 20 µM)”, the AUC was 0.982 and the pIC50 was under 4.70.
In the same order, the values of SKN (uterus, adherent, top dose 20 µM) are 0.961 and under 4.70.
Taken in the same sequence, the figures for “SKN-3 (head and neck, adherent, top dose 20 µM)” were 0.97 and under 4.70.
Turning to “SLVL (B-cell lymphoma, suspension, top dose 20 µM)”, the AUC came out at 0.912 and the negative logarithm of the IC50 (pIC50) was under 4.70.
“SN12C (kidney, adherent, top dose 20 µM)”: the AUC worked out at 0.981 and the negative-log IC50 (pIC50) was under 4.70.
Turning to “SNB75 (glioma, adherent, top dose 20 µM)”, the AUC was found to be 0.932 and the pIC50 is under 4.70.
Taken in the same sequence, the figures for “SNG-M (endometrium, adherent, top dose 20 µM)” were 0.949 and under 4.70.
In the same order, the values of “SNU-61 (large intestine, adherent, top dose 20 µM)” are 0.985 and under 4.70.
Taken in the same sequence, the figures for “SNU-81 (large intestine, adherent, top dose 20 µM)” were 0.981 and under 4.70.
On to “SNU-175 (large intestine, suspension, top dose 20 µM)”, for which the AUC was determined as 0.985 and the pIC50 is under 4.70.
Turning to “SNU-182 (liver, adherent, top dose 10.24 µM)”, the AUC is 0.957 and the pIC50 was under 4.99.
In the same order, the values of “SNU-387 (liver, adherent, top dose 20 µM)” are 0.983 and under 4.70.
With “SNU-398 (liver, adherent, top dose 20 µM)”, the AUC turned out to be 0.702 and the pIC50 is 5.32.
Taken in the same sequence, the figures for “SNU-407 (large intestine, adherent, top dose 20 µM)” were 0.956 and under 4.70.
With “SNU-423 (liver, adherent, top dose 20 µM)”, the AUC was determined as 0.741 and the pIC50 was 5.15.
On to “SNU-449 (liver, adherent, top dose 20 µM)”, for which the AUC is 0.972 and the pIC50 is under 4.70.
For the cell line “SNU-475 (liver, adherent, top dose 20 µM)”, the AUC worked out at 0.971 and the pIC50 was under 4.70.
Taken in the same sequence, the figures for “SNU-1040 (large intestine, adherent, top dose 20 µM)” were 0.971 and under 4.70.
Taken in the same sequence, the figures for “SNU-C1 (large intestine, suspension, top dose 20 µM)” were 0.953 and under 4.70.
On to “SNU-C2B (large intestine, adherent, top dose 20 µM)”, for which the AUC amounted to 0.961 and the pIC50 is under 4.70.
Taken in the same sequence, the figures for “SNU-C5 (large intestine, adherent, top dose 20 µM)” were 0.973 and under 4.70.
Taken in the same sequence, the figures for “SR (lymphoid neoplasm, suspension, top dose 20 µM)” were 0.275 and 6.51.
In the same order, the values of “ST486 (Burkitt lymphoma, suspension, top dose 20 µM)” are 0.75 and 5.23.
As to “STS-0421 (soft tissue, adherent, top dose 20 µM)”, the AUC was 0.837 and the pIC50 is 4.78.
With “SU8686 (pancreas, adherent, top dose 20 µM)”, the AUC is 0.986 and the pIC50 is under 4.70.
In the same order, the values of “SU-DHL-1 (anaplastic large cell lymphoma, suspension, top dose 20 µM)” are 0.992 and under 4.70.
“SU-DHL-4 (B-cell lymphoma, suspension, top dose 20 µM)”: the AUC came out at 0.991 and the pIC50 was under 4.70.
For the cell line “SU-DHL-5 (B-cell lymphoma, suspension, top dose 20 µM)”, the AUC is 0.928 and the pIC50 is 4.73.
Consider “SU-DHL-6 (B-cell lymphoma, suspension, top dose 20 µM)”, for which the AUC came to 0.926 and the pIC50 was 4.76.
Taken in the same sequence, the figures for “SU-DHL-8 (B-cell lymphoma, suspension, top dose 20 µM)” were 0.816 and 5.00.
“SU-DHL-10 (B-cell lymphoma, suspension, top dose 20 µM)”: the AUC was 0.937 and the negative logarithm of the IC50 (pIC50) is 4.78.
“SU-DHL-16 (B-cell lymphoma, suspension, top dose 20 µM)”: the AUC stood at 0.986 and the pIC50 is under 4.70.
Taken in the same sequence, the figures for “SUIT-2 (pancreas, adherent, top dose 20 µM)” were 0.887 and under 4.70.
For the cell line “SUP-B15 (lymphoblastic leukaemia, suspension, top dose 20 µM)”, the AUC was 0.729 and the negative-log IC50 (pIC50) was 5.27.
Regarding “SUP-HD1 (Hodgkin lymphoma, suspension, top dose 20 µM)”, the AUC was found to be 0.94 and the pIC50 is under 4.70.
In the same order, the values of “SUP-M2 (anaplastic large cell lymphoma, suspension, top dose 20 µM)” are 0.887 and 4.88.
Turning to “SUP-T1 (T-cell lymphoblastic leukaemia, suspension, top dose 20 µM)”, the AUC is 0.933 and the negative-log IC50 (pIC50) is under 4.70.
In the same order, the values of “SW13 (adrenal gland, adherent, top dose 20 µM)” are 0.988 and under 4.70.
As for “SW48 (large intestine, adherent, top dose 20 µM)”, the AUC is 0.935 and the pIC50 was under 4.70.
Consider “SW156 (kidney, adherent, top dose 20 µM)”, for which the AUC stood at 0.927 and the pIC50 was under 4.70.
For the cell line “SW620 (large intestine, adherent, top dose 20 µM)”, the AUC is 0.935 and the pIC50 is under 4.70.
In the same order, the values of SW626 (ovary, adherent, top dose 20 µM) are 0.983 and under 4.70.
As for “SW684 (fibrosarcoma, adherent, top dose 20 µM)”, the AUC amounted to 0.983 and the pIC50 is under 4.70.
Taken in the same sequence, the figures for “SW756 (cervix, adherent, top dose 20 µM)” were 0.984 and under 4.70.
Taken in the same sequence, the figures for “SW780 (bladder, adherent, top dose 20 µM)” were 0.986 and under 4.70.
Take “SW837 (large intestine, adherent, top dose 20 µM)”: the AUC is 0.983 and the pIC50 was under 4.70.
Turning to “SW872 (soft tissue, adherent, top dose 20 µM)”, the AUC is 0.977 and the pIC50 is under 4.70.
Taken in the same sequence, the figures for “SW900 (lung squamous cell carcinoma, adherent, top dose 20 µM)” were 0.982 and under 4.70.
In the same order, the values of “SW948 (large intestine, adherent, top dose 20 µM)” are 0.972 and under 4.70.
Consider “SW954 (urogenital system, adherent, top dose 20 µM)”, for which the AUC came to 0.941 and the pIC50 is under 4.70.
Turning to “SW962 (urogenital system, adherent, top dose 20 µM)”, the AUC was 0.957 and the pIC50 is under 4.70.
Turning to “SW982 (soft tissue, adherent, top dose 20 µM)”, the AUC is 0.899 and the negative-log IC50 (pIC50) was under 4.70.
In the same order, the values of “SW1088 (glioma, adherent, top dose 20 µM)” are 0.959 and under 4.70.
In the same order, the values of “SW1116 (large intestine, adherent, top dose 20 µM)” are 0.985 and under 4.70.
